In the supplement of paper PMC8728848:
Shown is part of a subset that was picked to be rich in the strongest signals.

Tests used:
Experiment in all cases: glycan array binding signal (z-score within array); higher = stronger binding
Settings in all cases: glycan notation: IUPAC condensed, linker removed
[1] = test system: Gal(b1-4)GlcNAc(b1-6)GalNAc
Method in brief: (§1)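 Glycan array data came from 3228 arrays in the Consortium for Functional Glycomics database, and only arrays with an available protein sequence were kept. Glycan names were put into IUPAC-condensed notation, and columns mapping to the same glycan were averaged. The binding signal is a within-array Z-score, averaged across arrays of one protein sequence run at different concentrations or buffers and across linkers. A negative Z-score can be read as non-binding.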

Gal(b1-4)GlcNAc6P = test system: Gal(b1-4)GlcNAc6P
Method in brief: as §1

[2] = test system: Gal(b1-4)GlcNAc(b1-6)[Gal(b1-3)]GlcNAc
Method in brief: as §1

[3] = test system: Gal(b1-4)GlcNAc(b1-6)[Gal(b1-3)]GalNAc
Method in brief: as §1

Gal(b1-4)Glc = test system: Gal(b1-4)Glc
Method in brief: as §1

Gal3S(b1-3)GlcNAc = test system: Gal3S(b1-3)GlcNAc
Method in brief: as §1

With “Gal 3 (Homo sapiens) (chain not printed)” the “glycan array binding signal (z-score)” value [1] was -0.222 and the “glycan array binding signal (z-score)” value (Gal(b1-4)GlcNAc6P) was -0.174.
With “H-Ficolin (Homo sapiens) (chain not printed)” the “glycan array binding signal (z-score)” value [1] was -0.247 and the “glycan array binding signal (z-score)” value [2] was -0.73.
“Galectin-8 C-terminal CRD (Homo sapiens) (chain not printed)” was tested, and the “glycan array binding signal (z-score)” value [3] was -0.348.
“Gal 8 long (Homo sapiens) (chain not printed)” was tested, and the “glycan array binding signal (z-score)” value [3] was -0.33.
“Thrombomodulin Extracellular (Homo sapiens) (chain not printed)” was tested, and the “glycan array binding signal (z-score)” value (Gal(b1-4)Glc) was 0.236.
In the case of “M-Ficolin G221F (Homo sapiens) (chain not printed)”, the “glycan array binding signal (z-score)” value (Gal(b1-4)Glc) is reported as -0.161.
With “Angiogenin (Homo sapiens) (chain not printed)” the “glycan array binding signal (z-score)” value (Gal3S(b1-3)GlcNAc) was -0.271.
With “M-Ficolin (Homo sapiens) (chain not printed)” the “glycan array binding signal (z-score)” value (Gal3S(b1-3)GlcNAc) was -0.011.
